Screen size: about 420,000 compounds; about 75 (0.02%) were called active. The inconclusive results got no clear call from the source; some entries with a clear call stand among them for comparison. The call rests on the fitted dose curve; in most records, active means well fitted activation curve with a large enough effect; inconclusive means small, poorly fitted or top-dose-only effect; inactive means no such curve, though single readings can be large or run the other way. A potency beside an inconclusive call is a rough fit, not a confirmed value.
Test: qHTS for Inducers of the Endoplasmic Reticulum Stress Response (ERSR) in Human Glioma: qHTS; further: nearly all actives have a fitted effect of over 35% in size; on activation: % of control where 0% means no effect
Settings: U87-MG GRP78 promoter luciferase reporter, 16 h; activation: hits give high values
Outline: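 ERSR induction read as luciferase luminescence (Bright-Glo, 10 min at room temperature) in stably transfected human U87-MG glioma cells exposed to compounds for 16 h, using GRP78 as sensor.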
Potency means the concentration at half of the fitted maximal effect; tags describe the fitted curve by direction and shape.

| SMILES | activation | Potency |
| --- | --- | --- |
| O=C(CN1C(=O)C(=O)N(Cc2ccco2)C1=O)c1c[nH]c2ccccc12 | inactive: -4.4% | – |
| COc1ccc(OCCSc2nnc(CC(=O)Nc3cccc(Cl)c3Cl)n2C)cc1 | inactive: -3.16% | – |
| CCCCOC(=O)Nc1ccc2c(C)cc(=O)oc2c1 | inactive: -11.6% | – |
| O=c1c(-c2nc3ccccc3s2)cccn1Cc1ccc(Cl)cc1 | – | inconclusive: 5.01 µM [activator, single point] |
| CCN(CC(=O)Nc1ccc(OC)cc1)C(=O)c1ccc2ccccc2c1 | inactive: -0.409% | – |
| CN(C)S(=O)(=O)c1cccc(NC(=O)c2cc3ccccc3o2)c1 | – | inconclusive: 15.8 µM [activator, single point] |
| CC1=C(C(=O)OCC2CCCO2)C(c2ccc(C)o2)C2=C(CC(c3ccc(F)cc3)CC2=O)N1 (stereo not given) | inactive: -3.71% | – |
| Brc1ccc(-c2csc(-c3ccncc3)n2)cc1 | – | inconclusive: 10 µM [activator, partial curve, poor fit] |
| N#Cc1cccc(-c2ccc3ncnc(NCCN4CCOCC4)c3c2)c1 | inactive: -1.05% | – |
| CCOC(=O)C1=C(C)NC(C)=C(C(=O)OCC)C1c1cc2ccc(C)cc2[nH]c1=O | inactive: -3.28% | – |
| CN(C)c1ccc(-c2nc3cc(N)ccc3o2)cc1 | inactive: -13.4% | – |
| O=C(NCC1CCCO1)c1cc(-c2ccc(F)cc2)no1 (stereo not given) | – | inconclusive: 10 µM [activator, full curve, poor fit] |
| CSc1c(C#N)c(N)nc2sc(C(=O)c3ccccc3)c(N)c12 | inactive: 5.41% | – |
| O=C(c1ccc(CS(=O)c2cccc(Cl)c2)o1)N1CCOCC1 (stereo not given) | – | inconclusive: 14.1 µM [activator, single point] |
| CCc1nc2ccc(C(=O)Nc3ccc4c(c3)OCC(=O)N4)cn2c1N(C)Cc1nccn1C | inactive: -3.47% | – |
| CCCc1c(C(=O)NNc2ccc(C)cc2)cnn1-c1ccccc1 | inactive: -3.65% | – |
| COc1ccc(OC)c(/C=C/C(=O)c2ccc3c(c2)OCO3)c1 | – | inconclusive: 44.7 µM [activator, partial curve, poor fit] |
| CCOC(=O)c1c(NC(=O)CCS(=O)(=O)c2ccccc2)sc2c1CCN(C)C2 | – | inconclusive: 50.1 µM [activator, single point] |
| N#C/C(=C/c1ccc(O)c(O)c1)c1nc2ccccc2[nH]1 | – | inconclusive: 50.1 µM [activator, single point] |
| O/N=C(\COc1ccccc1O)c1ccccc1 | inactive: 1.52% | – |
| CSc1ccccc1NC(=O)c1ccccn1 | – | inconclusive: 50.1 µM [activator, single point] |
| Cc1ccc(C(=O)/C=C/c2ccccc2[N+](=O)[O-])cc1 | – | inconclusive: 11.2 µM [activator, partial curve, poor fit] |
| O=C1NC(=S)S/C1=C/c1ccc(OC(=O)c2ccco2)cc1 | – | inconclusive: 10 µM [activator, single point] |

| SMILES | activation | Potency |
| --- | --- | --- |
| COc1ccc([C@H]2CC(=O)C=C(/C=C/Cc3ccccc3)C2)cc1 | – | inconclusive: 50.1 µM [activator, single point] |
| CN(Cc1ccco1)C(=O)CCc1nc2sc3c(c2c(=O)[nH]1)CCCC3 | inactive: -0.782% | – |
| O=C(/C=C/c1ccc(F)cc1)c1ccccc1Br | – | inconclusive: 10 µM [activator, single point] |
| CN(c1ccccc1)c1nc(N)c([N+](=O)[O-])c(NC2CCCCC2)n1 | – | inconclusive: 12.6 µM [activator, single point] |
| O=C(O)C1CC=CCC1C(=O)N1CCN(c2nc(-c3ccccc3Cl)c3cc(Br)ccc3n2)CC1 (stereo not given) | – | inconclusive: 10 µM [activator, single point] |
| CC1CC=CC2C1C(=O)N(Cc1ccccc1)C2c1ccc(-c2ccoc2)cc1F (stereo not given) | – | inconclusive: 44.7 µM [activator, partial curve, poor fit] |
| Cc1cccc(NC(=S)Nc2ccccn2)c1 | inactive: 5.92% | – |
| Cn1c(=O)c2c(=O)cc(NNC(=O)CC#N)[nH]c2n(C)c1=O | – | inconclusive: 28.2 µM [activator, single point] |
| CN(C)CCNC(=O)c1cc2c(=O)n(C)c3ccccc3c2n1C | inactive: -1.4% | – |
| C=CCOc1ccc(/C=N/N2C(=O)C(CC(=O)Nc3ccc(F)cc3F)SC2=NC)cc1 (stereo not given) | – | inconclusive: 14.1 µM [activator, full curve, poor fit] |
| Cc1cc(Cl)ccc1OCc1n[nH]c(=S)n1C1CCCCC1 | inactive: -11% | – |
| CCCn1c(/C=N/Nc2nc3ccccc3[nH]2)nc2ccccc21 | – | inconclusive: 44.7 µM [activator, partial curve, poor fit] |
| O=C(Nc1cccc([N+](=O)[O-])c1)c1ccc([N+](=O)[O-])o1 | – | inconclusive: 11.2 µM [activator, partial curve, poor fit] |
| CCN1CCCC1CNCc1ccccc1OCc1ccc(F)cc1 (stereo not given) | – | inconclusive: 5.01 µM [activator, single point] |
| CC1CC/C(=C\c2ccc3c(c2)OCO3)C(=O)/C1=C/c1ccc2c(c1)OCO2 (stereo not given) | – | inconclusive: 31.6 µM [activator, partial curve] |
| CC(=O)c1cccc(NC(=O)C2CC(=O)N(c3cccc(C)c3C)C2)c1 (stereo not given) | inactive: 1.52% | – |
| C=CCN1C(=O)/C(=C/c2ccc(OCC(=O)O)cc2)S/C1=N/c1nccs1 | inactive: -1.08% | – |
| CCc1cc2c(SCC(=O)c3ccc(C)cc3)ncnc2s1 | – | inconclusive: 50.1 µM [activator, single point] |
| Cc1cc(N2C(=O)C(O)=C(C(=O)c3ccco3)C2c2ccc(O)cc2)no1 (stereo not given) | inactive: -1.66% | – |
| O=C(COc1cccc(Br)c1)N/N=C1\CCSC1 | – | inconclusive: 28.2 µM [activator, single point] |
| CCSC1=NC(C)(C)C=C(/C=C/c2ccc(Cl)cc2Cl)N1 | – | inconclusive: 44.7 µM [activator, single point] |
| Nc1c(C(=O)N/N=C/c2ccccc2Cl)oc2nc(-c3ccccc3)cc(-c3ccco3)c12 | inactive: 0.482% | – |
